Source: PubChem BioAssay AID1346428 (National Center for Advancing Translational Sciences (NCATS), 2018)
Screen size: about 48,000 compounds; about 1,200 (2.5%) were called active. About 2% were inconclusive and are not listed.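 How the source made its calls: active means activation of at least 60% and not above a set upper limit (about 1 call in 100 departs from these limits); inconclusive means activation of 40% to 60%, or above that upper limit; inactive means activation under 40%.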 The list shows a part of the results.

Biological target: Probable G-protein coupled receptor 32 (Homo sapiens) (UniProt O75388)
Assay: qHTS for Agonists of Human Resolvin D1 Receptor DRV1; further: 0% is about no effect
Details: CHO-K1 GPR32 beta-arrestin PathHunter luminescence, 90 min; at 76.9 µM; stronger effect = higher value; zero percent set by DMSO-only wells
Summary of the method: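 Readings come from a cell-based beta-arrestin complementation format: CHO-K1 GPR32 stable cells (2,500/well) treated 90 min with compounds, then beta-Gal substrate added for 1 h before chemiluminescence imaging.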

Chain of UniProt O75388 (O75388 whole entry, looked up): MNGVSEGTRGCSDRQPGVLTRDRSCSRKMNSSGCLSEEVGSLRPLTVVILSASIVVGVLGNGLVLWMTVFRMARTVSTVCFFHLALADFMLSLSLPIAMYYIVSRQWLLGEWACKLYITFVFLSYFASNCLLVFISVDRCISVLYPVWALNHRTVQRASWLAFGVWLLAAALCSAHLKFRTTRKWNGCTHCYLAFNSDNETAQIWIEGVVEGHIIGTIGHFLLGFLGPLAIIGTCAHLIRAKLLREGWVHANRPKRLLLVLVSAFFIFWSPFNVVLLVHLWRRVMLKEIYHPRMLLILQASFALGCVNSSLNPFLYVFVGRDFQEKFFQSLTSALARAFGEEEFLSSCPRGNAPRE

Compound	activation
COc1ccc(CNC(=O)c2cc(-c3ccc(Br)s3)nc3ccccc23)cc1	inactive: 3.84%
O=c1[nH]c(C2CCCN(S(=O)(=O)c3ccccc3)C2)nc2c1nnn2Cc1ccccc1Br (centres undefined)	inactive: -23.6%
CCOC(=O)c1cccc(NC(=O)Nc2c(C)n(C)n(-c3ccccc3)c2=O)c1	inactive: -16.4%
Cc1cccc(-n2ncc3c(NNC(=O)c4ccccc4Cl)ncnc32)c1	inactive: -0.104%
COc1ccc(-c2ccc(=O)n(CC(=O)Nc3cc(OC)ccc3OC)n2)cc1	inactive: -12.3%
CCCCN(CC)CCCNC(=O)c1cn(C)c(=O)c2c1c1ccccc1n2C	inactive: -19.6%
Cc1cccc(C)c1NC(=O)Cn1cc(C(=O)C2CC2)c2ccccc21	inactive: -8.79%
Cc1nn(CCC(=O)Nc2cccc(C#N)c2)c(C)c1S(=O)(=O)N1CCCCC1	inactive: -10.4%
Cc1ccc(C)c(CN2C(=O)c3ccccc3S(=O)c3ccc(C(=O)N4CCCCC4)cc32)c1 (centres undefined)	inactive: -7.56%
CCc1cnc2c(c1SCc1cc(OC)cc(OC)c1)c(=O)n(C)c(=O)n2C	inactive: -1.2%
COc1ccc(OC)c(S(=O)(=O)NCCS(=O)(=O)N2CCN(c3ccccc3F)CC2)c1	inactive: -11.6%
CCS(=O)(=O)NCCc1csc2nc(-c3ccc(OC)cc3)nn12	inactive: -6.87%
Cc1ccc(OCCn2c(C3CC(=O)N(Cc4ccc(F)cc4)C3)nc3ccccc32)c(C)c1 (centres undefined)	inactive: -34.6%
COc1ccccc1/C=C/C(=O)Nc1nc2n(n1)C(c1ccc(F)cc1)C=C(c1ccccc1)N2 (centres undefined)	inactive: -15.8%
CSc1ncc(C(=O)NCc2cccc(C)c2)c(-c2ccccc2)n1	inactive: -11.8%
Cc1ccc(C(=O)C(=O)O)cc1C	inactive: 3.88%
O=S(=O)(NCC(c1ccccc1)N1CCc2ccccc21)c1ccc(Cl)cc1 (centres undefined)	inactive: -10.3%
C=CCc1ccccc1OCCSc1nc(-c2ccccc2F)nc2cc(=O)[nH]n12	inactive: -27%
COC(=O)c1ccc(NC(=O)CC2C(=O)N(c3ccccc3)C(=O)N2Cc2cccs2)cc1 (centres undefined)	inactive: -14.6%
CCN(CC)C(=O)c1sc2c(c1C)c(=O)n(-c1ccc(OC)cc1OC)c(=O)n2CC(=O)Nc1ccccc1	inactive: -10.9%
Cc1cccc(N2CCN(c3nc4ccccc4c4nnc(C)n34)CC2)c1C	inactive: 3.58%

Compound	activation
COc1ccc(CNC(=O)Cn2cccc2C(=O)c2ccccc2C)cc1	inactive: -18.4%
COc1ccc(C(=O)c2cn(Cc3ccccc3OC)c3cc4c(cc3c2=O)OCO4)cc1	inactive: 17.1%
Cc1cccc(NC(=O)c2c(NC(=O)c3ccccc3)sc3c2CCC3)c1	inactive: 9.32%
Cc1cc(C)cc(-n2ccnc2SCC(=O)Nc2ccccc2F)c1	inactive: -10.4%
COc1ccc(CNC(=O)CCc2c(C)nc3cc(-c4ccc(OC)cc4OC)nn3c2C)cc1	inactive: -1.98%
CC(C)=CCNc1ncnc2c1ncn2[C@@H]1O[C@H](CO)[C@@H](O)[C@H]1O	inactive: 22.9%
Fc1ccc(-c2cc(-c3ccc(F)cc3)c3c(n2)-c2cc(F)ccc2OC3)cc1	inactive: -3.83%
Fc1ccc(Nc2nc(-c3cccc(Cl)c3)c3c(n2)-c2ccccc2OC3)c(F)c1	inactive: -5.01%
Cc1oc(=O)oc1COC(=O)[C@@H]1N2C(=O)[C@@H](NC(=O)[C@H](N)c3ccccc3)[C@H]2SC1(C)C	inactive: 24.3%
Cc1cccc(NC(=O)Cn2c(=O)n(CC3CCC(C(=O)NCCc4ccccc4)CC3)c(=O)c3ccccc32)c1 (centres undefined)	inactive: 7.66%
CCOC(=O)c1cc(-c2ccc(F)cc2)n(CCC(=O)NC2CCC(C)CC2)c1C (centres undefined)	inactive: -20%
CCc1ccc(NC(=O)CSc2nc(-c3ccc(C)cc3)nc3c2Cc2c(CO)cnc(C)c2O3)cc1	inactive: -5.41%
CCOc1ccc2nc(N3CCCC(C(=O)Nc4ccccc4CC)C3)sc2c1 (centres undefined)	inactive: -6.59%
CCc1ccc(-c2nc3cc(NC(=O)c4ccc(C)c(C)c4)ccc3o2)cc1	inactive: -8.88%
O=C(O)Cc1ccc2c(c1)C(=O)c1ccccc1CO2	inactive: -5.35%
COc1ccc(S(=O)(=O)n2nc(-c3ccco3)nc2NCc2ccc(C(C)C)cc2)cc1	inactive: -12.4%
CCOc1ccc(NC(=O)c2nc(S(=O)(=O)Cc3ccccc3F)ncc2Cl)cc1	inactive: -25.3%
Cc1c(NC(=O)c2cccs2)cccc1-c1nc2cc(Cl)ccc2o1	inactive: -11.8%
CCOc1ccc(C(=O)Nc2ccc(OCc3cc(=O)n4cccc(C)c4n3)cc2)cc1	inactive: -3.58%
O=C(NCCCN1CCN(c2ccccc2F)CC1)c1ccc2nc(CCc3ccccc3)oc2c1	inactive: 0.73%
COc1cccc(NC(=O)Cn2c(=O)n(Cc3ccc(F)cc3)c(=O)c3sc4ccccc4c32)c1	inactive: -9.58%

Compound	activation
CC(=O)NCCNC(=O)CCCc1nnc2n(CC(C)C)c(=O)c3sccc3n12	inactive: -0.539%
Cc1nc2ccccc2n1Cc1ccc(Cl)cc1	inactive: 26.4%
COc1ccc(-c2cc(-c3nc(-c4cc(OC)c(OC)c(OC)c4)no3)[nH]n2)c(OC)c1	inactive: -1.08%
COc1ccc(S(=O)(=O)NCc2cccn2Cc2cc(C)ccc2C)cc1OC	inactive: -4.88%
CCc1nnc2c3ccccc3nc(Nc3cc(C)cc(C)c3)n12	inactive: -5.42%
Cc1ccc(C(=O)Nc2cc(-c3cn4cccnc4n3)ccc2C)cc1C	inactive: 13.2%
Cc1nnc(NC(=O)CSc2nccn2Cc2ccccc2)s1	inactive: -5.5%
CSCCC(NS(=O)(=O)c1ccc2c(c1)oc(=O)n2C)C(=O)NCc1ccc(Cl)cc1 (centres undefined)	inactive: 1.92%
Cc1ccc(C)c(NC(=O)c2nc(S(=O)(=O)Cc3ccc(F)cc3)ncc2Cl)c1	inactive: 7.8%
CCS(=O)(=O)c1ncc(N(Cc2ccccc2)Cc2ccco2)c(C(=O)Nc2ccccc2C)n1	inactive: -16.7%
CCc1ccccc1S(=O)(=O)Cc1ccc(C(=O)NCCc2ccc(Cl)cc2)o1	active: 65.7%
O=C(Nc1cc(-c2cccc(Cl)c2)nn1-c1ccccc1)c1ccccc1F	inactive: 15.2%
NCC[C@H](O)C(=O)N[C@@H]1C[C@H](N)[C@@H](O[C@H]2O[C@H](CN)[C@@H](O)[C@H](O)[C@@H]2O)[C@H](O)[C@@H]1O[C@H]1O[C@H](CO)[C@@H](O)[C@H](N)[C@@H]1O	inactive: -0.517%
CC(C)CCNc1nc(Nc2ccccc2)c2cnn(C)c2n1	inactive: -22.5%
CCOC(=O)c1ccc(-n2c(CCC(=O)O)ccc2-c2ccccc2)cc1O	inactive: -3.16%
Cc1cc(F)ccc1Nc1nc2ccc(Cl)cc2n2cnnc12	inactive: -25%
CCC(C)(C)NC(=O)C(NS(=O)(=O)c1cccs1)c1ccccc1 (centres undefined)	inactive: -3.67%
COc1ccc(N2CCN(C(=O)C(CC(C)C)NS(=O)(=O)c3ccc4nc(C)sc4c3)CC2)cc1 (centres undefined)	inactive: -13.6%
Cc1cc(=O)oc2cc(O)ccc12	inactive: -7.06%
CNC(=O)c1cc2c(cn1)[nH]c1ccccc12	inactive: 15.5%
CC(CC(=O)Nc1ccc(F)cc1)S(=O)(=O)c1cc2c3c(c1)CCN3C(=O)CC2 (centres undefined)	inactive: -3.24%

Compound	activation
COc1ccc(NC(=O)/C=C/c2ccc(Cl)cc2)cc1	inactive: 12.8%
COC(=O)c1ccccc1NC(=O)CSc1nc2ccccc2nc1Cc1ccc(F)cc1	inactive: -7.36%
O=C(NC1CCCCC1)c1ccc2c(c1)N(Cc1cccc(Cl)c1)C(=O)c1ccccc1S2(=O)=O	inactive: -19.2%
CNc1ccc(-c2nc(-c3ccncc3)no2)cc1[N+](=O)[O-]	inactive: 0.499%
COc1ccc(NC(=O)C2=C(C)Nc3ncnn3C2c2sccc2C)cc1 (centres undefined)	inactive: 1.92%
CC(=O)N1CCCC1c1nc2ccccc2n1Cc1c(F)cccc1Cl (centres undefined)	inactive: -6.83%
COc1cc(OC)c(NC(=O)Cc2c(C(=O)O)c(C)cn2C)cc1Cl	inactive: -7.99%
CCCCn1c(=O)c2oc3ccccc3c2n(CC(=O)Nc2cc(C)ccc2C)c1=O	inactive: -9.04%
Cc1ccc(CNC(=O)Cc2c(C(=O)O)c(C)cn2C)cc1	inactive: 0.819%
Cc1ccc2oc(=O)n(CCNC(=O)Nc3ccccc3C)c2c1	inactive: 30.6%
COc1ccc(OC2CCN(S(=O)(=O)c3cccc(F)c3)CC2)cc1	inactive: -21.1%
CCc1ccc(OCC(=O)Nc2ccc(S(=O)(=O)Nc3onc(C)c3C)cc2)cc1	inactive: 35.2%
COc1ccc(C)cc1NC(=O)C(NS(=O)(=O)c1cccs1)c1ccccc1 (centres undefined)	inactive: 15%
Cc1cccc(C(=O)N2CCNC(=O)C2CC(=O)Nc2ccc(F)cc2)c1 (centres undefined)	inactive: 7.54%
CCOc1ccc(CN2C(=O)c3ccccc3Sc3ccc(C(=O)NCc4ccc5c(c4)OCO5)cc32)cc1	inactive: -18.8%
Cc1ccccc1NC(=O)Nc1csc2c1CCCC2	inactive: 0.4%
COc1ccc(C(=O)CSc2nc3cc(C(=O)NC4CCCC4)ccc3c(=O)n2CC2CCCO2)cc1 (centres undefined)	inactive: -14.9%
Cc1cccc(NC(=O)Cn2c(=O)n(CCc3ccccc3)c(=O)c3ccccc32)c1	active: 74.8%
COc1ccc(C2C(C(=O)Nc3ccccc3)=C(C)Nc3nc(-c4ccccc4)nn32)c(OC)c1 (centres undefined)	inactive: -13.2%
COC(=O)c1cc2oc3ccccc3c2n1CC(=O)Nc1cccc(SC)c1	inactive: 26.7%
CCCc1cnc2c(c1SCc1cccc(C)c1)c(=O)n(C)c(=O)n2C	inactive: -16.3%
